These results are taken from article PMC9818421.

Experiment [1] addresses T1, FLAG-tagged ABHD5, Q8WTS1.
T1 chain: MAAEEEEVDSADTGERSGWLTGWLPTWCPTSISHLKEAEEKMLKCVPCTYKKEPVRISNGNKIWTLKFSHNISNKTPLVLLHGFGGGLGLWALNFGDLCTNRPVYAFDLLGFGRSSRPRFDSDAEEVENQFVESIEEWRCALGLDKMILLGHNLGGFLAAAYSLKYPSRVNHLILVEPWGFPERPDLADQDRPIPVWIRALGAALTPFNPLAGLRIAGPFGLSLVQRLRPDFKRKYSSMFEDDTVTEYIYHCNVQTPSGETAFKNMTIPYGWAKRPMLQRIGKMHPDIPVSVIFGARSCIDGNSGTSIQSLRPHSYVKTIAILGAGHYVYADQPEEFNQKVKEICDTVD
Put plainly: co-IP; HEK293T cells transfected with PNPLA3, PNPLA3(I148M) or ATGL alone or together with FLAG-tagged PLIN1, 2, 3, 5 or ABHD5; precipitation by the FLAG tag, immunoblot. As to conditions: remark: other sources report otherwise.

For experiment [2], the target named is T2, FLAG-tagged perilipin 1 (human), O60240.
T2 chain: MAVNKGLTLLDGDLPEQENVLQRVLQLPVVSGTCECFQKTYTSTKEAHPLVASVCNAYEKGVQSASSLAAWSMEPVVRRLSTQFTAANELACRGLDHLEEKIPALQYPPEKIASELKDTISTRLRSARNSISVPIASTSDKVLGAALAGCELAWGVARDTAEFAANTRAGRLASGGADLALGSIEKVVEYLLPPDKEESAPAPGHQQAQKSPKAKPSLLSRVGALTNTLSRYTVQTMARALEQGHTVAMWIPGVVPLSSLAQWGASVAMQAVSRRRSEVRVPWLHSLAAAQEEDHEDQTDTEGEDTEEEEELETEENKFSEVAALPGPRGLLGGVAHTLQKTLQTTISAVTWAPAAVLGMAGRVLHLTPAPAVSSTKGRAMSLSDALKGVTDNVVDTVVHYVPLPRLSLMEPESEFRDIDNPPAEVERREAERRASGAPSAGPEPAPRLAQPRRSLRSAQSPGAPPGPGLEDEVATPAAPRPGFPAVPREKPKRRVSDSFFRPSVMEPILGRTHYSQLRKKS
The experiment is described as above. The note with it: remark: other sources report otherwise.

Experiment [3] deals with T3, FLAG-tagged perilipin 2 (human), Q99541.
T3 chain: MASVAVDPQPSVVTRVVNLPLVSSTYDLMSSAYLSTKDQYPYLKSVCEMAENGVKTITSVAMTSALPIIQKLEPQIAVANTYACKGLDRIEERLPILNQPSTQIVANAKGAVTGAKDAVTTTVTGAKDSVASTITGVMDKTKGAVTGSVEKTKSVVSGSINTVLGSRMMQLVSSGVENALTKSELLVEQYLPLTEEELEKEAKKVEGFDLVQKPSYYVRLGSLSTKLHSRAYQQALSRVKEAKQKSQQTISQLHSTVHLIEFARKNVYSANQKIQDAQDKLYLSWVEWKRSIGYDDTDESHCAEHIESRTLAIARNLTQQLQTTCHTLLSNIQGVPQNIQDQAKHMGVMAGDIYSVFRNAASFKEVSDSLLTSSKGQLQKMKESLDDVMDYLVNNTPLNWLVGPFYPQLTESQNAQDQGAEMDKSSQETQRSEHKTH
The experiment is described as above. The note with it: remark: other sources report otherwise.

Experiment [4] deals with T4, FLAG-tagged perilipin 1 (human) (UniProt O60240).
T4 sequence: T2 chain
Briefly: co-IP; Huh7 cells transfected with PNPLA3 alone or together with FLAG-tagged PLIN1, 2, 3, 5 or ABHD5; precipitation by the FLAG tag, immunoblot of PNPLA3.

The target of experiment [5] is T5, FLAG-tagged perilipin 2 (human) (UniProt Q99541).
T5 sequence: T3 chain
Described as above.

For experiment [6], the target named is T6, FLAG-tagged perilipin 3 (human) (UniProt O60664).
T6 sequence: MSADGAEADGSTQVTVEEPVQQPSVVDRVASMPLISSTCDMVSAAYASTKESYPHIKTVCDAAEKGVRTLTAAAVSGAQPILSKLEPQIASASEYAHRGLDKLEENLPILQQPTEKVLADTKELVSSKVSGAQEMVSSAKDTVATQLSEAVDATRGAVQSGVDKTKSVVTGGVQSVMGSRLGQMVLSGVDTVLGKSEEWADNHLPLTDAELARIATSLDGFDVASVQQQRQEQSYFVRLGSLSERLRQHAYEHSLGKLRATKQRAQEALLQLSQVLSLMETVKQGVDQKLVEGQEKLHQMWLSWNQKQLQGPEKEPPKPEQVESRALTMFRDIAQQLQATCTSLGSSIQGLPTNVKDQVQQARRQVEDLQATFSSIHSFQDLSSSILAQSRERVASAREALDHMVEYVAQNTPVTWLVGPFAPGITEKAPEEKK
The description is as above.

In experiment [7] the target is T4, FLAG-tagged perilipin 1 (human). Briefly: co-IP; HEK293T cells transfected with PNPLA3, PNPLA3(I148M) or ATGL alone or together with FLAG-tagged PLIN1, 2, 3, 5 or ABHD5; precipitation by the FLAG tag, immunoblot.
Experiment [8] deals with T5, FLAG-tagged perilipin 2 (human). The experiment is described as above.
Experiment [9] deals with T6, FLAG-tagged perilipin 3 (human). The description is as above.
Experiment [10] addresses T7, FLAG-tagged ATGL and HA-tagged ATGL (two differently tagged copies) (UniProt Q96AD5).
T7 sequence: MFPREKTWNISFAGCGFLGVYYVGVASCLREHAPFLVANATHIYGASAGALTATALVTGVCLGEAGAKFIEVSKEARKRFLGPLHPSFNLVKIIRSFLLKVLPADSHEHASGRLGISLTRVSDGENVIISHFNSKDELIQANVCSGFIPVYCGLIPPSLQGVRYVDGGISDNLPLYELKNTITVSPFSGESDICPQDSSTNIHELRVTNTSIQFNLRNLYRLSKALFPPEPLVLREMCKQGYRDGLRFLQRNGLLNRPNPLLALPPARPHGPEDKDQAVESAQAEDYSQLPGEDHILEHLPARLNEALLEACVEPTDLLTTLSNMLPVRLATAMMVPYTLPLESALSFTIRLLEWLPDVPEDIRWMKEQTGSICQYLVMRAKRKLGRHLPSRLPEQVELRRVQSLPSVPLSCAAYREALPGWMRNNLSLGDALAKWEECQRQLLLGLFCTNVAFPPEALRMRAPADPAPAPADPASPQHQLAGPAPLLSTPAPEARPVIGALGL
Briefly: co-IP; HEK293T cells transfected with FLAG-tagged ATGL alone and together with HA-tagged ATGL in the presence or absence of PNPLA3; precipitation by the FLAG tag, immunoblot of HA, FLAG and PNPLA3.

Experiment [11] deals with T1, FLAG-tagged ABHD5, Q8WTS1. Briefly: co-IP; Huh7 cells transfected with PNPLA3 alone or together with FLAG-tagged PLIN1, 2, 3, 5 or ABHD5; precipitation by the FLAG tag, immunoblot of PNPLA3. As to conditions: remark: other sources report otherwise.

Results are given in words; binding and its absence hold for the method and conditions named. In cells and extracts the contact can be indirect. Some binding calls cover weakened binding; strength is not graded here. Tags and fused reporters may be left off the sequences shown.

B1: adipose triglyceride lipase (ATGL), no tag named, Q96AD5 1-504 (enzyme)
chain: T7 sequence
For B1, the binding result in experiment [1] is reported as “binds”; in experiment [2], “no binding”; in experiment [3] it was “no binding”.

B2: PNPLA3 (patatin-like phospholipase domain containing 3), wild type, no tag named (enzyme, UniProt Q9NST1 1-481)
chain: MYDAERGWSLSFAGCGFLGFYHVGATRCLSEHAPHLLRDARMLFGASAGALHCVGVLSGIPLEQTLQVLSDLVRKARSRNIGIFHPSFNLSKFLRQGLCKCLPANVHQLISGKIGISLTRVSDGENVLVSDFRSKDEVVDALVCSCFIPFYSGLIPPSFRGVRYVDGGVSDNVPFIDAKTTITVSPFYGEYDICPKVKSTNFLHVDITKLSLRLCTGNLYLLSRAFVPPDLKVLGEICLRGYLDAFRFLEEKGICNRPQPGLKSSSEGMDPEVAMPSWANMSLDSSPESAALAVRLEGDELLDHLRLSILPWDESILDTLSPRLATALSEEMKDKGGYMSKICNLLPIRIMSYVMLPCTLPVESAIAIVQRLVTWLPDMPDDVLWLQWVTSQVFTRVLMCLLPASRSQMPVSSQQASPCTPEQDWPCWTPCSPKGCPAETKAEATPRSILRSSLNFFLGNKVPAGAEGLSTFPSFSLEKSL
On to B2, for which the binding entry in experiment [4], in experiment [5], in experiment [6], in experiment [7], in experiment [8] and in experiment [9] was “no binding” throughout. Also, the binding result in experiment [10] is on record as “binds”.

B3: PNPLA3 (patatin-like phospholipase domain containing 3), wild type, no tag named, Q9NST1 1-481 (enzyme)
chain: B2 chain
Regarding B3, the binding entry in [11] and in experiment [1] was “no binding” throughout.
